# Some of the results follow.
# B1: IRP60A (Homo sapiens), Q9UGN4 (protein)
# chain: MWLPWALLLLWVPGCFALSKCRTVAGPVGGSLSVQCPYEKEHRTLNKYWCRPPQIFLCDKIVETKGSAGKRNGRVSIRDSPANLSFTVTLENLTEEDAGTYWCGVDTPWLRDFHDPVVEVEVSVFPASTSMTPASITAAKTSTITTAFPPVSSTTLFAVGATHSASIQEETEEVVNSQLPLLLSLLALLLLLLVGASLLAWRMFQKWIKAGDHSELSQNPKQAATQSELHYANLELLMWPLQEKPAPPREVEVEYSTVASPREELHYASVVFDSNTNRIAAQRPREEEPDSDYSVIRKT
# What was measured:
# Experiment in all cases: glycan array binding signal (z-score within array); higher = stronger binding
# Details in all cases: glycan notation: IUPAC condensed, linker removed
# Fuc(a1-2)Gal = target: Fuc(a1-2)Gal
# Method in brief: (§1)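 The binding signal is a Z-score computed within each array and averaged over linkers. Arrays of the same protein sequence at different concentrations or buffers were also averaged together. Data originate from 3228 arrays in the Consortium for Functional Glycomics database, kept only where the protein sequence was available.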
# Fuc(a1-2)Gal(b1-3)GalNAc = target: Fuc(a1-2)Gal(b1-3)GalNAc
# Method in brief: as §1
# [1] = target: Fuc(a1-2)Gal(b1-3)GalNAc(b1-3)Gal
# Method in brief: as §1
# [2] = target: Fuc(a1-2)Gal(b1-3)GalNAc(b1-3)Gal(a1-4)Gal(b1-4)Glc
# Method in brief: as §1
# [3] = target: Fuc(a1-2)Gal(b1-3)GalNAc(b1-4)[Neu5Ac(a2-3)]Gal(b1-4)Glc
# Method in brief: as §1
# Fuc(a1-2)Gal(b1-3)GlcNAc = target: Fuc(a1-2)Gal(b1-3)GlcNAc
# Method in brief: as §1
# [4] = target: Fuc(a1-2)Gal(b1-3)[Fuc(a1-4)]GlcNAc
# Method in brief: as §1
# Fuc(a1-2)Gal(b1-4)Glc = target: Fuc(a1-2)Gal(b1-4)Glc
# Method in brief: as §1
# Fuc(a1-2)Gal(b1-4)GlcNAc = target: Fuc(a1-2)Gal(b1-4)GlcNAc
# Method in brief: as §1
# [5] = target: Fuc(a1-2)Gal(b1-4)GlcNAc(b1-3)Gal(b1-4)GlcNAc
# Method in brief: as §1
# [6] = target: Fuc(a1-2)Gal(b1-4)GlcNAc(b1-3)Gal(b1-4)GlcNAc(b1-3)Gal(b1-4)GlcNAc
# Method in brief: as §1
# [7] = target: Fuc(a1-2)Gal(b1-4)[Fuc(a1-3)]GlcNAc
# Method in brief: as §1
# Fuc(a1-2)GlcNAc = target: Fuc(a1-2)GlcNAc
# Method in brief: as §1
# Fuc(a1-2)[Gal(a1-3)]Gal = target: Fuc(a1-2)[Gal(a1-3)]Gal
# Method in brief: as §1
# [8] = target: Fuc(a1-2)[Gal(a1-3)]Gal(b1-4)GlcNAc
# Method in brief: as §1
# [9] = target: Fuc(a1-2)[Gal(a1-4)]Gal(b1-4)GlcNAc
# Method in brief: as §1
# [10] = target: Fuc(a1-2)[GalNAc(a1-3)]Gal
# Method in brief: as §1
# [11] = target: Fuc(a1-2)[GalNAc(a1-3)]Gal(b1-4)GlcNAc
# Method in brief: as §1
# [12] = target: Fuc(a1-2)[GalNAc(a1-4)]Gal(b1-4)GlcNAc
# Method in brief: as §1
# [13] = target: Fuc(a1-2)[GalNAc(b1-3)]Gal
# Method in brief: as §1
# Fuc(a1-3)GlcNAc = target: Fuc(a1-3)GlcNAc
# Method in brief: as §1
# [14] = target: Fuc(a1-3)[Gal(b1-4)]GlcNAc
# Method in brief: as §1
# [15] = target: Fuc(a1-3)[Gal(b1-4)]GlcNAc(b1-3)Gal(b1-4)[Fuc(a1-3)]GlcNAc
# Method in brief: as §1
# [16] = target: Fuc(a1-3)[Gal(b1-4)]GlcNAc(b1-3)Gal(b1-4)[Fuc(a1-3)]GlcNAc(b1-3)Gal(b1-4)[Fuc(a1-3)]GlcNAc
# Method in brief: as §1
# [17] = target: Fuc(a1-3)[Gal3S(b1-4)]GlcNAc
# Method in brief: as §1
# Fuc(b1-3)GlcNAc = target: Fuc(b1-3)GlcNAc
# Method in brief: as §1
# Gal(a1-2)Gal = target: Gal(a1-2)Gal
# Method in brief: as §1
# Gal(a1-3)Gal = target: Gal(a1-3)Gal
# Method in brief: as §1
# Gal(a1-3)Gal(b1-4)Glc = target: Gal(a1-3)Gal(b1-4)Glc
# Method in brief: as §1
# Gal(a1-3)Gal(b1-4)GlcNAc = target: Gal(a1-3)Gal(b1-4)GlcNAc
# Method in brief: as §1
binder,measurement,setting,value
B1,glycan array binding signal (z-score),Fuc(a1-2)Gal,0.125
same,glycan array binding signal (z-score),Fuc(a1-2)Gal(b1-3)GalNAc,-0.123
same,glycan array binding signal (z-score),[1],-0.387
same,glycan array binding signal (z-score),[2],0.012
same,glycan array binding signal (z-score),[3],-0.364
same,glycan array binding signal (z-score),Fuc(a1-2)Gal(b1-3)GlcNAc,-0.155
same,glycan array binding signal (z-score),[4],-0.215
same,glycan array binding signal (z-score),Fuc(a1-2)Gal(b1-4)Glc,-0.053
same,glycan array binding signal (z-score),Fuc(a1-2)Gal(b1-4)GlcNAc,0.348
same,glycan array binding signal (z-score),[5],-0.394
same,glycan array binding signal (z-score),[6],-0.378
same,glycan array binding signal (z-score),[7],-0.173
same,glycan array binding signal (z-score),Fuc(a1-2)GlcNAc,0.11
same,glycan array binding signal (z-score),Fuc(a1-2)[Gal(a1-3)]Gal,-0.301
same,glycan array binding signal (z-score),[8],-0.266
same,glycan array binding signal (z-score),[9],-0.153
same,glycan array binding signal (z-score),[10],-0.282
same,glycan array binding signal (z-score),[11],0.381
same,glycan array binding signal (z-score),[12],-0.223
same,glycan array binding signal (z-score),[13],-0.31
same,glycan array binding signal (z-score),Fuc(a1-3)GlcNAc,0.257
same,glycan array binding signal (z-score),[14],-0.209
same,glycan array binding signal (z-score),[15],-0.341
same,glycan array binding signal (z-score),[16],-0.448
same,glycan array binding signal (z-score),[17],-0.025
same,glycan array binding signal (z-score),Fuc(b1-3)GlcNAc,1.57
same,glycan array binding signal (z-score),Gal(a1-2)Gal,-0.38
same,glycan array binding signal (z-score),Gal(a1-3)Gal,-0.304
same,glycan array binding signal (z-score),Gal(a1-3)Gal(b1-4)Glc,-0.419
same,glycan array binding signal (z-score),Gal(a1-3)Gal(b1-4)GlcNAc,-0.257

# From the supplement of paper PMC8728848
